Test results: publication PMC5380967
Changes are numbered by the printed parent chain. Results are given in words; binding and its absence hold for the method and conditions named. For part of these data: Binding seen in cells or lysates may run through a third protein. Some results given as binding are weak or reduced against the parent protein; the word gives no strength. For part of these data: Where a sequence is shown, tags or fusion partners need not be part of it. Values belong to the molecule of their own block, whether it stands above or below them.

Amino acid sequences for entries named in this document (tags omitted).
UniProt Q07820: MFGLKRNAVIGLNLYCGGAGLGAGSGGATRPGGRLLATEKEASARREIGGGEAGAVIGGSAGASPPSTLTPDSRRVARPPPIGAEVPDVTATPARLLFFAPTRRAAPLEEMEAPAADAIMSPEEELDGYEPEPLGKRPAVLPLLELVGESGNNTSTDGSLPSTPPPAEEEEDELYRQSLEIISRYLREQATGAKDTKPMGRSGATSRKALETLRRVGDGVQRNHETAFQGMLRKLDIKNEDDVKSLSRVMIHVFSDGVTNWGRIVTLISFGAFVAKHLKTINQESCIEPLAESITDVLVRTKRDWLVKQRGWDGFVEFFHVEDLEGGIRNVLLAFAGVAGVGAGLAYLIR
UniProt Q96J02: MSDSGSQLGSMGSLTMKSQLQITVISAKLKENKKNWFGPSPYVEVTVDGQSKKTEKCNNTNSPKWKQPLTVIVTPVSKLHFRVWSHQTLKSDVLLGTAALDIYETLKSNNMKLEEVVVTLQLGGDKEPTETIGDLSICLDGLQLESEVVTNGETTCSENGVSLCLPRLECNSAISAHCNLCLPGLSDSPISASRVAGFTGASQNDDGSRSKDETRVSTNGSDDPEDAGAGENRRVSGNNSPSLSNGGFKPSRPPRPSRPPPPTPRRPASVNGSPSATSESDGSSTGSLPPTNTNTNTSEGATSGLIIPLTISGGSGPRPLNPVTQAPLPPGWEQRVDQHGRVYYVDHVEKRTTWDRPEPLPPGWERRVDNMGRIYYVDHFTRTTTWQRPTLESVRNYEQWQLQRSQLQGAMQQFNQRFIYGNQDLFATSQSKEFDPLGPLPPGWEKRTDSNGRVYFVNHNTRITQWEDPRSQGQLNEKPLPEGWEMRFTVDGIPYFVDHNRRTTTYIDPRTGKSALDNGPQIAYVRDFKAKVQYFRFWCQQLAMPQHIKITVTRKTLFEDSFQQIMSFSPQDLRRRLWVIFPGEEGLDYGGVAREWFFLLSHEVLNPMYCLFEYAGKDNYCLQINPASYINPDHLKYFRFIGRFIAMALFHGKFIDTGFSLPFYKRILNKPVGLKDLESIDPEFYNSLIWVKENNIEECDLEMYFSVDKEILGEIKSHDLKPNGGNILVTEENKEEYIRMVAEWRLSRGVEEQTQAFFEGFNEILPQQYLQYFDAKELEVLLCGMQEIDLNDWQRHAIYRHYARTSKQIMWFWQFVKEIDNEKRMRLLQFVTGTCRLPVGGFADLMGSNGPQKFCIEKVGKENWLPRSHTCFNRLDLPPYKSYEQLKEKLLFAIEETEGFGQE
UniProt O43303: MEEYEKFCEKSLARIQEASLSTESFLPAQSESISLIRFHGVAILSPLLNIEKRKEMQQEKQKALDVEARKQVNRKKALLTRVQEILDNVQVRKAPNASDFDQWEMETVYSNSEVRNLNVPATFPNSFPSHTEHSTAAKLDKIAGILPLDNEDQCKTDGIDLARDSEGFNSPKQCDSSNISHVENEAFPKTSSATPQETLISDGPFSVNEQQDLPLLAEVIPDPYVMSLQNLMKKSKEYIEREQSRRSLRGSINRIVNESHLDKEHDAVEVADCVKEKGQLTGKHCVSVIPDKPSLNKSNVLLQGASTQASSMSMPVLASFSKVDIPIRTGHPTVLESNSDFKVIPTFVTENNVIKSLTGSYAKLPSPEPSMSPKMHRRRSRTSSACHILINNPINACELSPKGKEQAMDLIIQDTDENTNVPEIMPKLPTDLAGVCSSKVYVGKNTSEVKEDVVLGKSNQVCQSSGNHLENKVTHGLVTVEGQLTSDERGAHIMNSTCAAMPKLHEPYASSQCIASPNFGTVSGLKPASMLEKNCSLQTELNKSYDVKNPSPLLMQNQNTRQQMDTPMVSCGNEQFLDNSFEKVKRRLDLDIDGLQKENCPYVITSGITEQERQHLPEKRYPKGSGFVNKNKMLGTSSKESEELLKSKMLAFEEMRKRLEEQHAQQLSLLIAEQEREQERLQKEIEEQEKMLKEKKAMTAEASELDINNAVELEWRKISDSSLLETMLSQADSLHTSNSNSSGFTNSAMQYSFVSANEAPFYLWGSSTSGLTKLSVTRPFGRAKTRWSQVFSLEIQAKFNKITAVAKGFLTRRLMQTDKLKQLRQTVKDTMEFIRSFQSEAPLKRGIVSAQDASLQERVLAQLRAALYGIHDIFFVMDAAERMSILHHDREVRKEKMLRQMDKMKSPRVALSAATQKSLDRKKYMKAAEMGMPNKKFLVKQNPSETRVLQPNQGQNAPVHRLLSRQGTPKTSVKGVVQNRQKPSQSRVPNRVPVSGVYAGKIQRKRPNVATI
UniProt Q93008: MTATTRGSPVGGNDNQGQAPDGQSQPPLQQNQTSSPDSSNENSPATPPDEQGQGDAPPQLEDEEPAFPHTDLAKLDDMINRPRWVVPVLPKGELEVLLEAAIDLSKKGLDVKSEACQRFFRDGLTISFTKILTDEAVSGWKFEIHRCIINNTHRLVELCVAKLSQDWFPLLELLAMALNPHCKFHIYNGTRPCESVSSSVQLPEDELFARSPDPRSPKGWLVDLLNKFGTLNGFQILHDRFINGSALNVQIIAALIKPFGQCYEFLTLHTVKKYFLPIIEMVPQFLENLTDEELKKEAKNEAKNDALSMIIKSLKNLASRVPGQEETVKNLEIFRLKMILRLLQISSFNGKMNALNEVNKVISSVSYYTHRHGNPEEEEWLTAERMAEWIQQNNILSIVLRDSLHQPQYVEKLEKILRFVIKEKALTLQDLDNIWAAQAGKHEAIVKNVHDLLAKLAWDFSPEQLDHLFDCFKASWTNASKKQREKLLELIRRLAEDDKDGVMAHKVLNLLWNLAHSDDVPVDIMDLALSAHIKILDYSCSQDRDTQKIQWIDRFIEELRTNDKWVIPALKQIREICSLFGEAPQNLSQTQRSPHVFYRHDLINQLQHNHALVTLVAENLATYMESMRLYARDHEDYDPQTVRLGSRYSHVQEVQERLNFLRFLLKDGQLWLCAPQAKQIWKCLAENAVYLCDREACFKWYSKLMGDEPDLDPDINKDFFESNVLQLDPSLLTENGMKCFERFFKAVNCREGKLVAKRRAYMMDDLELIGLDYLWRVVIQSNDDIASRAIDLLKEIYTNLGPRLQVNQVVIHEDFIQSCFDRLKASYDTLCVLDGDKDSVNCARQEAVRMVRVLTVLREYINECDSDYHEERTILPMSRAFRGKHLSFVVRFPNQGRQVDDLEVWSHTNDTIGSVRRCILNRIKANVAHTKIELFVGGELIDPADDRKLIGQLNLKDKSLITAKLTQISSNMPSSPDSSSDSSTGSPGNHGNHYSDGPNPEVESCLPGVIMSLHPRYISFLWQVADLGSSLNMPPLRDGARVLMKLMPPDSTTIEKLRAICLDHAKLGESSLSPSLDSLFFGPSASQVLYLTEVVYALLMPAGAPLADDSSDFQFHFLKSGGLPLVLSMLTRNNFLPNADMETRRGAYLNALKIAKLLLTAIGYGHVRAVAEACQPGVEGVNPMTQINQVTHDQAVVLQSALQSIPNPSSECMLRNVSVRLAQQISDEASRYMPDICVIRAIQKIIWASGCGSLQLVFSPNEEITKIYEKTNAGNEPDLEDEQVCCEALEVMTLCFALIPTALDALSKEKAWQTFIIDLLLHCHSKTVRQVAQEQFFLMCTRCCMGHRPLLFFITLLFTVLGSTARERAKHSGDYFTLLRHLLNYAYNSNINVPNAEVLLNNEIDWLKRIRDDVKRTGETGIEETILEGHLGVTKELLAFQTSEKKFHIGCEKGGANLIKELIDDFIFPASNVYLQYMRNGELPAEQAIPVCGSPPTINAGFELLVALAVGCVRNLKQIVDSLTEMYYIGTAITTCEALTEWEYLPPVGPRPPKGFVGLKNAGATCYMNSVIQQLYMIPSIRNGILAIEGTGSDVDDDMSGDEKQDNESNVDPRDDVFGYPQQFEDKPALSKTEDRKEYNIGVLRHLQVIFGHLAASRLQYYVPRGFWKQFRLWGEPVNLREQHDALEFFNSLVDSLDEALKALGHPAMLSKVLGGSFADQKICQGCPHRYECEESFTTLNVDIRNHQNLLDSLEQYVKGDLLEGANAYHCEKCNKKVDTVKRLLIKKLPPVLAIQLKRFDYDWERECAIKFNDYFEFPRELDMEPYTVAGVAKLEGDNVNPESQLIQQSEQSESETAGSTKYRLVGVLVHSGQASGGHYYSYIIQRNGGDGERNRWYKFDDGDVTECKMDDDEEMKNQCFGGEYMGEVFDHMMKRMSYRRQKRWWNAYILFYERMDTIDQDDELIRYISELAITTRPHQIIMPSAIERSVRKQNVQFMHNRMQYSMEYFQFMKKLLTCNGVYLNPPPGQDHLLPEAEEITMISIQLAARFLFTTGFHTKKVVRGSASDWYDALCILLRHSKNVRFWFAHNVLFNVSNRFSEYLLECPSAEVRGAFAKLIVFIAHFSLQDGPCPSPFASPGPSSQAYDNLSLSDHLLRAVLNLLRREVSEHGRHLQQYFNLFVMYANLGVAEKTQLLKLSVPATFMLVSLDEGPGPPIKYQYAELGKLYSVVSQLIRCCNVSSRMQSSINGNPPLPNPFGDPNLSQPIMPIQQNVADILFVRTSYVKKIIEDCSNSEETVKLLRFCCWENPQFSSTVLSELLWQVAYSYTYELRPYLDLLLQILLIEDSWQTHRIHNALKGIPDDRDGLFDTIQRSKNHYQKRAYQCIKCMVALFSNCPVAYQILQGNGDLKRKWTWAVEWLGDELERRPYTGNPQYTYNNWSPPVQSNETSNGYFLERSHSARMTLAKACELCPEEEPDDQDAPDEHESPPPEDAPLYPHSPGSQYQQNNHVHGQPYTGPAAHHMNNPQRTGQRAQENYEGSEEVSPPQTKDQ

What was measured:
MCL1 = MCL1 (UniProt Q07820); test: co-IP; immunoprecipitation of ITCH or MCL1, blot for USP9X and CEP131 (Supplementary Fig. 10b); cells not given
[1] = biological target: itchy E3 ubiquitin protein ligase (ITCH) (human (endogenous in HeLa)) (UniProt Q96J02); test: as above
FLAG-CEP131 (human) = biological target: T1, FLAG-CEP131 (human) (UniProt Q9UPN4); test: SEC; FLAG-CEP131 anti-FLAG affinity eluate from HeLa cells fractionated on Superose 6 gel filtration; fractions immunoblotted (Supplementary Fig. 1b)
T1 sequence: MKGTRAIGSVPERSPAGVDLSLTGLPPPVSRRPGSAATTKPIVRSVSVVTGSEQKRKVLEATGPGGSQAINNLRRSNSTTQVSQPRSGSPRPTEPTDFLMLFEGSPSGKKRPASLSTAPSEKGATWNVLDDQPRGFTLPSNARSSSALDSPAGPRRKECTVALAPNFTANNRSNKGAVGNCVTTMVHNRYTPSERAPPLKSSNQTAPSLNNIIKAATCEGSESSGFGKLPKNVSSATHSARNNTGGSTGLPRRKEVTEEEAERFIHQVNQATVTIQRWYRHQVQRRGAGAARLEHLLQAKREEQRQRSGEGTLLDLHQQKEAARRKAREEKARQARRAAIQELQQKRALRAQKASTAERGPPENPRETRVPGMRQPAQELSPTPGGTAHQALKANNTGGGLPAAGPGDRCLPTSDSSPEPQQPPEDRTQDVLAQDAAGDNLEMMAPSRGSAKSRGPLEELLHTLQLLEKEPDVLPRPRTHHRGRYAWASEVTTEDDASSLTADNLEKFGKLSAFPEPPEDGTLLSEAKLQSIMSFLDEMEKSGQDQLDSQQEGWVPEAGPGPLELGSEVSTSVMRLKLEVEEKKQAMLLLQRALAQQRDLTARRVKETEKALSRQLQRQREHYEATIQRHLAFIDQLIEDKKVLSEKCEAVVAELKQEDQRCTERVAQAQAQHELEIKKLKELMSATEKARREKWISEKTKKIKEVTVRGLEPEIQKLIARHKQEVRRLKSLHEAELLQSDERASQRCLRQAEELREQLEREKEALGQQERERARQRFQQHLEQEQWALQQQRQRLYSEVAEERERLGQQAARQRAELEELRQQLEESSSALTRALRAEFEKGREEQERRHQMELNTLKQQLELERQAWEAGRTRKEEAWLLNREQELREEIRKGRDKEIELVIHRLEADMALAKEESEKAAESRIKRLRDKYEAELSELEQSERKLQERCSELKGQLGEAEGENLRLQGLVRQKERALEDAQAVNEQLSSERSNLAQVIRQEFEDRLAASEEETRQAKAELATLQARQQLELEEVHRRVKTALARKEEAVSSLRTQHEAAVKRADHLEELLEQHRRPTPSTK

[2] = biological target: T2, CEP131, centriolar satellite protein, endogenous (human (endogenous in HeLa, MCF-7, HEK293T, U2OS)) (UniProt Q9UPN4); test: co-IP; endogenous proteins; whole-cell lysates of HeLa, MCF-7, HEK293T and U2OS cells in NETN buffer (50 mM Tris-HCl pH 8.0, 150 mM NaCl, 0.2% Nonidet P-40, 2 mM EDTA); protein G magnetic beads; immunoblot; also U2OS cells synchronized by double-thymidine block and released (association detected primarily in S and G2 phases)
T2 sequence: T1 sequence

[3] = biological target: CP110, centrosomal protein, endogenous (human (endogenous in HeLa, MCF-7, HEK293T, U2OS)) (UniProt O43303); test: as above
CEP131/wt (human) = biological target: T3, CEP131/wt (human) (UniProt Q9UPN4); test: co-IP; association of USP9X with CEP131/wt or CEP131/K254R (Fig. 4h, left panel); cells and tags not stated
T3 sequence: T1 sequence

CEP131/K254R (human) = biological target: T4, CEP131/K254R (human) (UniProt Q9UPN4); test: as above
T4 sequence: T1 sequence with K254R

[4] = biological target: ubiquitin-specific peptidase 9, X-linked (USP9X), endogenous (human (endogenous in HeLa, MCF-7, HEK293T, U2OS)) (UniProt Q93008); test: SEC; HeLa cell extracts fractionated on a Superose 6 size exclusion column (FPLC); fractions immunoblotted
[5] = biological target: ubiquitin-specific peptidase 9, X-linked (USP9X), endogenous (human (endogenous in HeLa, MCF-7, HEK293T, U2OS)) (UniProt Q93008); test: co-IP; endogenous proteins; whole-cell lysates of HeLa, MCF-7, HEK293T and U2OS cells in NETN buffer (50 mM Tris-HCl pH 8.0, 150 mM NaCl, 0.2% Nonidet P-40, 2 mM EDTA); protein G magnetic beads; immunoblot; also U2OS cells synchronized by double-thymidine block and released (association detected primarily in S and G2 phases)
[6] = biological target: T5, USP33, deubiquitinase, endogenous (human (endogenous in HeLa, MCF-7, HEK293T, U2OS)) (UniProt Q8TEY7); test: as above
T5 sequence: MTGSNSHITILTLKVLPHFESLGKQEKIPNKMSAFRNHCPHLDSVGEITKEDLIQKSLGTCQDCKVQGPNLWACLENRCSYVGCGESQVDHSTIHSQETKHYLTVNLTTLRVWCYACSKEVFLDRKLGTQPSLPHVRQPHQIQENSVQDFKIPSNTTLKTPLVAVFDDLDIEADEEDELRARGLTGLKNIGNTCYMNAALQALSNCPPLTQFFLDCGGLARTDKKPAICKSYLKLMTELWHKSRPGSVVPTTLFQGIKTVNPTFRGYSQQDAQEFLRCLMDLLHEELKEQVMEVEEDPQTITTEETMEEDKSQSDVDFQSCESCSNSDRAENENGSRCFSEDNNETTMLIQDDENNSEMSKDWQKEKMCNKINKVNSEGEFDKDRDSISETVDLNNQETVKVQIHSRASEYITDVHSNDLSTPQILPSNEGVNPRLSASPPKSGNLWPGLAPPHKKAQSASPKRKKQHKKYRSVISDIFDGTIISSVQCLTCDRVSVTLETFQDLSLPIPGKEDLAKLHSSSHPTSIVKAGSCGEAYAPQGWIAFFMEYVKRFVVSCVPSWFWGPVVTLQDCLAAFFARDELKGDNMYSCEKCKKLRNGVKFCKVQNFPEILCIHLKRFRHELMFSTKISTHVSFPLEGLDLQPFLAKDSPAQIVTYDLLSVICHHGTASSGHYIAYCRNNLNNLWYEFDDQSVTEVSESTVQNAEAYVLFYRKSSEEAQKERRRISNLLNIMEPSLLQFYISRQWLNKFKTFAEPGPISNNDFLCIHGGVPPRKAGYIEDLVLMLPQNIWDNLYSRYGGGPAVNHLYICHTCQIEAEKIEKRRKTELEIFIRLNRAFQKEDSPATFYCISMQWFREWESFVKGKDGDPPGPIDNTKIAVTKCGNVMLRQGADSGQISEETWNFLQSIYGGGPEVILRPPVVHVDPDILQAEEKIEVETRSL

binding (MCL1): binds
binding [1]: binds
binding (FLAG-CEP131 (human)): binds
binding [2]: binds
binding [3]: no binding
binding (CEP131/wt (human)): binds
binding (CEP131/K254R (human)): binds
Molecule: ubiquitin-specific peptidase 9, X-linked (USP9X), endogenous (from UniProt Q93008 1-2554) (enzyme)

binding (MCL1): no binding
binding [1]: no binding
binding [4]: binds
binding [5]: binds
binding [6]: no binding
B1: CEP131, centriolar satellite protein, endogenous (protein, UniProt Q9UPN4 1-1083)
chain: T1 sequence
